Measured values: the supplement of paper PMC3334620
Over roughly 33,000 sequences, “E-score (-0.5 to 0.5)” has its median near -0.036; the highest 2% begin near 0.37. Some of the results follow.

Target: T1, Yer064c (UniProt P40041)
T1 sequence: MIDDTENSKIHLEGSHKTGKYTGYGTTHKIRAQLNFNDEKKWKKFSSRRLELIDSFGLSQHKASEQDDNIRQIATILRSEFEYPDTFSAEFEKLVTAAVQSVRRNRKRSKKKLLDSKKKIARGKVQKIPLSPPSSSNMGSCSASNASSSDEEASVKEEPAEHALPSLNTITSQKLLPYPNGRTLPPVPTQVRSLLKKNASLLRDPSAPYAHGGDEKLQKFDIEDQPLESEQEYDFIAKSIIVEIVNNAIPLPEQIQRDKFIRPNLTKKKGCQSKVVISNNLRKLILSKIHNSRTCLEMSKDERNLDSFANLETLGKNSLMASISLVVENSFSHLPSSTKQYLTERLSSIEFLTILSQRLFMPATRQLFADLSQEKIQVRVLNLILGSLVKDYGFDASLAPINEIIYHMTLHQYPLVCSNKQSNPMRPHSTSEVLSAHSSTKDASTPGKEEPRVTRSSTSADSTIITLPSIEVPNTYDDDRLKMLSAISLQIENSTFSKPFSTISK
Experiment: PBM E-score (8-mer binding enrichment) (E-score (-0.5 to 0.5)); higher = stronger / more preferred TF binding; most listed sequences are background and not binding sites
Settings: protein concentration: 200 nM; construct: GST-full length
Outline: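 For each ungapped eight-base word taken together with its reverse complement, the Universal PBM Analysis Suite assigned an E-score. Binding data came from GST-tagged yeast transcription factors, applied at about 100-200 nM, on universal all-10-mer Agilent arrays made double-stranded by primer extension. Fluorescent anti-GST marked bound protein, and scans were normalised with masliner.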

Sequence	PBM E-score
TCAGCTGA	0.248
ATGCCGGG	-0.264
CGAGTTTA	-0.0607
AACTTTGC	-0.113
GTTGCTTA	-0.0566
AACATCCG	-0.233
GCGTGTTA	-0.0117
CCCTAACG	-0.138
AAACCGAA	0.0673
CCAAATTA	0.162
CCACTTTA	-0.0244
CTGAGGTA	0.212
ACACATAT	0.104
CACTAAGG	0.0367
GCGTGATA	0.00442
CAATGACC	0.0491
AATAGCCG	-0.128
AAAGTGCC	-0.0752
CATTGTTC	-0.177
GCTATTGA	-0.0582
CACGGATA	0.0811
ACAGTGCA	-0.164
ACTTCATA	-0.0355
CCAGAGTA	-0.0992
CTGCCAGC	-0.104

Sequence	PBM E-score
ACTGCAAG	-0.0713
GGAGAGTA	-0.0137
TCTTAGAA	0.141
CACTTATA	0.0646
ACTTTTGA	0.0751
ACCATCGC	0.178
ACAATACG	-0.187
ACACACTG	0.0265
CGACTTCA	0.226
AGGATTGG	0.0372
CCCAACCG	-0.132
CACAAGTA	0.0928
AGAAGCAA	-0.00856
AGAGATCG	-0.15
AACCGCTC	0.0832
CTAAGGCC	-0.077
CATGTAAG	-0.068
GCCTCGCA	-0.00344
AATCCACT	-0.0125
CCGAGGAA	-0.258
ACGTGTCT	0.0182
CCAGGGAA	-0.268
GTGTCACA	0.0892
ACGTTACC	-0.254
TGGGTTAA	0.0487

Sequence	PBM E-score
CGATGGGA	-0.1
ACACCTGG	-0.033
GAAGGTCC	-0.197
ATGGTTCG	0.0445
GGTCAATA	0.108
ACGACGCG	-0.0207
ACGTACAG	-0.237
GCAGCAGC	-0.189
TAGACTAA	0.3
AGGAGATG	0.0306
GCACATCA	0.0514
CACTGTGG	-0.177
GGGCCAAA	-0.0926
CGTTGATA	0.0048
ATTCAATC	0.308
GTTCCAGA	-0.164
AGTAAGGC	-0.146
CCGGAAGA	-0.0156
GAGTTGGC	-0.0416
CCCCAATA	-0.218
AACCGACG	-0.185
AAACCATC	0.191
AGTTCTAA	0.16
AGTGACTC	0.486
ACCACGCA	0.00876

Sequence	PBM E-score
CATACGCC	-0.136
CTAGTGTC	-0.0221
AATTAATT	0.177
GTTCTCGA	0.0156
AGGACGTG	-0.126
AGGCCCCC	-0.473
ATCCGGGC	-0.228
AATCCCCG	-0.0169
GTTCGATA	-0.107
TAAGTCGA	0.103
AGAGAGTG	-0.104
ACCTTGGA	-0.0702
AAAGGTCC	-0.197
ACGTGAGA	-0.125
CTGGATAA	-0.00609
GCTTTTTA	-0.0979
ACTTATGA	0.304
ACCTCCAG	-0.226
ACGGGTAG	0.0544
CGACAGGC	-0.121
CAGGAACG	-0.305
ATGTACGA	-0.174
AAGCTATC	0.06
AAAAGCGT	0.0573
GCCATGAC	0.307

Sequence	PBM E-score
GTAATTCA	0.0337
CTGAGAGA	-0.0026
ATCAGTGC	0.153
GTAACCGA	-0.0287
ATGAAGTG	-0.0985
CATCTTGC	0.112
ACCGCAAT	0.146
CCACAGCA	-0.173
AGCGTAAA	0.126
CAAAAATC	0.0115
ATGCTAAA	0.0382
AACACGCG	0.0221
AAAATTTG	-0.00395
GGTGCGTA	-0.255
ATGGTGTA	-0.0684
AGCGCTCC	-0.244
GGAGCACA	-0.0954
GCGGATCA	0.0842
TCTCACCA	-0.117
CATATGCC	-0.107
ATTTGCCA	-0.0327
AGATAACT	0.0858
AAGGGCCC	-0.112
ATCACGCG	0.169
ATACTAGG	-0.0478

Sequence	PBM E-score
AAAAGGTG	-0.0707
ATTCAAGG	0.133
AACTGAGA	0.113
GATGATAA	-0.017
CACAAGCA	-0.0637
GGGCAACA	-0.0991
ACCAGCGT	-0.0354
CCCAATCG	-0.0382
ATCATGGG	0.138
AGCGTACA	-0.0265
AGAAGTTA	-0.0371
CCCCCGAG	-0.245
AGGCCCGG	-0.262
GGTAAGAC	0.127
CTCAAATA	0.0245
AGCTGGAT	-0.0706
CTTATACA	0.0544
CTGATTTA	0.238
ACAAGGCC	-0.244
CCTTGAAC	-0.0599
GACACTGA	0.0567
AAACTGGT	-0.206
ACCAATCC	-0.187
GTAGCACA	0.144
GAGTGTAC	-0.0806

Sequence	PBM E-score
AGAGTTTA	0.0546
CACGTCCG	-0.285
AGTGACGA	0.218
AGAGACAT	0.208
CGGACGGA	-0.179
GGGGTTAA	0.116
ATGTTCCG	-0.0922
AACCGGAT	-0.043
CCCGCACC	-0.217
ACAATTAG	-0.0116
GATCATCC	0.171
AGCGACTA	0.391
CTCGCGCC	-0.0984
ACATCCTA	0.0331
CAAGGCTA	0.0888
ACTCTTTA	0.241
GTGCGTGA	0.104
AATGCGTA	0.00743
CTAATAAC	0.0519
AGTATAGG	-0.00011
CATGCAAC	-0.139
AAAAGACC	-0.145
